Screen size: about 150,000 compounds; about 540 (0.36%) showed an effect of 50% or more. The list shows a part of the results.
These compounds were tested on Plasmodium falciparum (assay: Primary screen in NF54 nanoGlo assay, in single point, at 2uM, 72h; a lower Z score goes with more inhibition). Conditions: timepoint 72 hour.
Type: functional, Erythrocyte

Structure (SMILES) | % Inhibition [%] | Z score
Cc1cccc(OC2CCN(C(=O)[C@H](O)c3ccccc3)CC2)c1 | -2 | 0.3
O=C(CN1C(=O)CCC1=O)N1CCN(c2cc3c(nn2)CCCC3)CC1 | -8 | 1.34
Cc1nc(CNc2nc(-c3ccco3)nc3c2CCN(C)CC3)cs1 | 6 | -0.85
CCOc1ccccc1CNC(=O)c1cc(C)nc2c1c(=O)n(C)c(=O)n2C | -3 | 0.46
COc1cc(OC)c(Nc2c(C(=O)N3CCCC3)cnc3nc(C)ccc23)cc1Cl | -5 | 0.72
O=C(C(=O)N1CCCCC1)c1ccc(Br)cc1 | 16 | -2.22
O=C(NC1CC1)c1ccc(OC[C@H]2CCCN2C(=O)c2ccccc2F)cc1 | -14 | 2.57
CNc1nc(C)c(C(=O)N(C)Cc2ccncc2C)s1 | -2 | 0.32
Cc1nn(CCCNS(=O)(=O)c2cnn(C)c2C)c(C)c1Br | 3 | -0.35
O=C(Nc1cc(C(F)(F)F)ccc1O)c1c[nH]nc1C1CC1 | 3 | -0.54
O=C1CCN(CC(=O)N2CC=C(c3ccccc3F)C2)C(=O)N1 | -8 | 1.24
CC(C)CN1CCN(CCCN2C(=O)NC(C)(C)C2=O)CC1 | 29 | -3.93
O=C(COC1CCCCC1)Nc1ccccc1C(=O)NC1CC1 | -8 | 1.49
COCCCCC(=O)N(Cc1ccccc1)c1ccc(C#N)cn1 | -5 | 0.77
CC(C)NC(=O)c1nsc(C(=O)NC2CC2)c1N | -12 | 1.19
O=C(CCCn1ccnc1)N[C@H]1COCC[C@@H]1Oc1ccc(CO)cc1 | -4 | 0.8
Cc1cc(N2CC(n3nc(C)cc3C)C2)n2ncnc2n1 | 6 | -0.82
C[C@H]1CCCN(C(=O)CN2CCN(c3ccc(F)c(F)c3)C2=O)C1 | 2 | -0.25
Cc1cc(C)c(N2CC[C@H](N3CCC4(C3)OCCO4)C2=O)c(C)c1 | -10 | 1.5
CC(C)(CN1C[C@H](C(=O)O)[C@@H](c2ccncc2)C1)N1CCCCC1 | -6 | 0.98
CC(=O)N1N=C(COc2ccc(Cl)cc2Cl)O[C@@]1(C)c1ccccc1 | -12 | 1.55

Structure (SMILES) | % Inhibition [%] | Z score
O=C(Cn1ncccc1=O)NCc1nc(-c2ccc[nH]c2=O)no1 | -9 | 1.46
Cc1cc(NC(=O)N2CCO[C@H]3CN(C(=O)OC(C)(C)C)C[C@H]32)no1 | 6 | -0.91
N#Cc1ccccc1OCCN1CC(n2cccn2)C1 | -7 | 0.93
O=C(c1ccns1)N(Cc1ccccc1)CC1(O)CCCC1 | 0 | 0.07
O=C(c1ccc(F)cc1)N1CCC(n2cc(-c3nc(C4CC4)no3)nn2)CC1 | -20 | 2.31
CCc1nc(COC(=O)[C@@H]2CCCN2C(=O)OC)cs1 | 13 | -1.18
Cc1cc(C(=O)N2CCn3nc(CCC(=O)N4CCCC4)cc3C2)[nH]n1 | -4 | 0.62
CC(C)CNC(=O)c1coc(COc2ccc3ncccc3c2)n1 | -8 | 1.11
C[C@@H](CNc1nc(C2CC2)no1)Cn1cccn1 | -9 | 0.81
COc1ccc2c(Cl)c(C(=O)Nc3nc(-c4ccccc4)cs3)sc2c1Cl | 7 | -0.72
CO[C@H]1C[C@@H](CO)N(C(=O)c2onc3c2CCCC3)C1 | -12 | 2.37
COc1ccc(CCc2nc(-c3ccc4c(c3)[nH]c(=O)n4C(C)C)no2)cc1 | -8 | 1.09
O=C1NCCN(C(=O)CCN2CCCC2=O)[C@H]1Cc1ccccc1 | -8 | 1.74
CCc1nn(C)c(NC(=O)[C@H]2CCN(CCOC)C2)c1C | 4 | -0.69
COc1ccccc1NC(=O)C(=O)N1CCC[C@H](c2nc(C)no2)C1 | -2 | 0.21
CCN1C(=O)[C@@H]2CC3(CCN(C(=O)Nc4ccc(C)c(C)c4)CC3)CN2C1=O | 7 | -0.92
CCCCn1nc(-c2ccc(C(N)=O)cc2)nc1CN1CCOC1=O | -13 | 2.21
Cc1c(C(=O)N2CC[C@H](n3cc(Cl)cn3)C2)nnn1Cc1ccc(F)cc1 | -9 | 1.45
O=C(Cc1noc(C2(c3cccc(F)c3)CC2)n1)NC1CCCC1 | -11 | 1.25
Cc1ccc2cc(S(=O)(=O)N3CCOCC3)ccc2c1 | -5 | 0.63

— ChEMBL document CHEMBL4888484, “Replenishing the malaria drug discovery pipeline: Screening and hit evaluation of the MMV Hit Generation Library 1 (HGL1) against asexual blood stage Plasmodium falciparum ,using a nano luciferase reporter read-out” (2022)
